# Reference: publication PMC9574860, “Chemical Toolkit for PARK7: Potent, Selective, and High-Throughput” (Journal of Medicinal Chemistry, 2022)
# In all, about 7,900 compounds went through this assay and about 400 (5.1%) showed an effect of 50% or more. The list shows a part of the results.
# Target: Parkinson's disease protein 7 (PARK7/DJ1) (human, UniProt Q99497)
# Assay: primary screen, percent inhibition; read as competition with a fluorescent probe by fluorescence polarization; higher = more effect of the substance
# Details: 100 µM
# Procedure, shortened: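 Covalent fragments at 100 μM final were incubated 2 h with 0.2 μM PARK7, then 20 nM probe JYQ-107 added for a further 2 h. Fluorescence polarization read at 480/520 nm; relative FP loss versus reference controls gave remaining enzyme activity.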
# Chain of Parkinson's disease protein 7 (PARK7/DJ1) (Q99497 whole entry, looked up): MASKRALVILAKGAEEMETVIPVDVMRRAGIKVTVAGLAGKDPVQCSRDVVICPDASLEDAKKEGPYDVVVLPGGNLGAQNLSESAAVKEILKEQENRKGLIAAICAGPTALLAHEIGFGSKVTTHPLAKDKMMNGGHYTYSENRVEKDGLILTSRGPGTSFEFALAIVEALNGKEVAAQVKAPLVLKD
row,Structure (SMILES),Inhibition % [%]
1,C=CC(=O)NC1=NN(Cc2ccccc2)C(C)C1 (stereo not shown),10.9
2,N#Cc1c(S)nc2c(c1-c1ccco1)CCC2,1.97
3,COCC(C)NC(=O)C(C#N)=Cc1cccc(F)c1F (stereo not shown),-1.14
4,C=CC(=O)N1CCSCC(C)C1 (stereo not shown),8.62
5,COc1cc(NC(=O)CCl)cc(OC)c1OC,7.91
6,C=CC(=O)N1CCCC1c1cccc(C)n1 (stereo not shown),13
7,N#CC(=Cc1c(F)cccc1F)C(N)=O,6.29
8,CC1(C)OB(c2cnc3ccnn3c2)OC1(C)C,5.87
9,CC(C)(O)c1ccc(B2OC(C)(C)C(C)(C)O2)cc1,3.89
10,OC1(C2CO2)CCOCC1 (stereo not shown),7.63
11,Cc1cccc(N2CCN(C(=O)n3ccnc3)CC2)c1C,6.87
12,N#Cc1ncn(CCC(=O)Nc2c(Cl)cccc2Cl)n1,9.82
13,CC1CC(NC(C)c2ccccc2Cl)C(=O)O1 (stereo not shown),3.72
14,C=CC(=O)NC1CCOC2(CCSC2)C1 (stereo not shown),6.26
15,Cl.O=C(CCl)N1CCN(c2cccc(Cl)c2)CC1,44.3
16,Cc1nc(C=CC(=O)N2CCC(N)CC2C)cs1 (stereo not shown),11
17,O=C(O)Cc1ccc(OCC2CO2)cc1 (stereo not shown),3.87
18,C=C(C)c1nc(C#N)c(NCc2ccccc2)o1,9.08
19,COc1cc(C=C(C#N)C(N)=O)cc(Cl)c1OC(C)C,7.72
20,COc1ccc(OC)c(C(=O)CCl)c1,11.8
21,CC1COCCN1Cn1nc(-c2ccccc2)oc1=O (stereo not shown),1.98
22,Cn1nncc1C(=O)CCl,82.2
23,C=CC(=O)N1CCCC(C2CCOCC2)C1 (stereo not shown),8.4
24,O=C(CCl)c1ccc(CC(=O)N2CCOCC2)s1,7.37
25,CN(C)c1ccc(C=C(C#N)C(N)=O)cc1,5.91
26,C=CC(=O)N1CCC(C(=O)O)(c2cccc(C)c2)CC1,0.629
27,Cc1cc(C(=O)CCl)c(C)n1-c1ccc2c(c1)OCCO2,63.9

row,Structure (SMILES),Inhibition % [%]
1,CS(=O)(=O)OC1CCOC2(CCC2)C1 (stereo not shown),9.05
2,CC1CC(Sc2nnc(-c3cccs3)o2)C(=O)O1 (stereo not shown),18
3,Cc1ncc(C=CC(=O)N2CCC[C@@H]2C(=O)O)s1,4.11
4,O=C(NC1CCCC1)c1ccc(N2C(=O)CCC2=O)cc1,2.85
5,C=CC(=O)NC1(c2noc(CC)n2)CCCC1,7.72
6,N#Cc1cc(C(=O)O)c[nH]1,4.58
7,CN(Cc1cc(C#N)ccc1F)C(=O)CCl,50.3
8,C=CC(=O)Nc1ccc(OC2CCCC2)nc1,7.53
9,C=CC(=O)NC(c1cccc(C(F)(F)F)c1)c1nnc[nH]1 (stereo not shown),28.1
10,N#Cc1nn[nH]c1Cl,7.91
11,CC(C)NC(=O)C(C#N)=Cc1ccc(OC(C)C)cc1,4.04
12,O=C(NCC1CCS(=O)(=O)CC1)c1cccnc1S,-0.307
13,Cc1nc(C=CC(=O)N2CCc3sccc3C2)cs1,4.01
14,N#Cc1ccc(N2CCCC(C(N)=O)C2)cn1 (stereo not shown),6.47
15,Cc1cc(C)n(CC2CN(C3CC(C)OC3=O)CCO2)n1 (stereo not shown),5.93
16,O=S(=O)(c1ccc(Cl)cc1)n1cccc1,2.87
17,N#Cc1ccc(C(=O)O)[nH]1,7.43
18,C=CC(=O)NC1c2ccccc2CCC1N(C)C (stereo not shown),6.75
19,N#Cc1nn(C2CCCCC2O)c2ccccc12 (stereo not shown),0.835
20,Cc1ccc(S(=O)(=O)OC2CCS(=O)(=O)C2)cc1 (stereo not shown),-6.46
21,Cc1cc(NC(=O)c2c[nH]c(C#N)c2)ccc1OCCO,4.15
22,C=CC(=O)NC1CC2CCC1C2 (stereo not shown),3.12
23,C=CC(=O)N1CCOc2ccccc21,9.1
24,C=CC(=O)N(C)C1CS(=O)(=O)C1,5.08
25,N#Cc1cccc(NC[C@H]2CCO[C@@H]2c2ccccc2)n1,3
26,C=CC(=O)NC(CC1CCCCC1)c1ncccn1 (stereo not shown),8.7
27,O=C(CCl)N(C1CC1)C1CCS(=O)(=O)C1 (stereo not shown),5.73

row,Structure (SMILES),Inhibition % [%]
1,Cc1cc(Br)ccc1NC(=O)CCl,19.7
2,COc1cc(C(C)Nc2ccc(C#N)nc2)ccc1F (stereo not shown),2.94
3,O=C1NC(C2CC2)C1C1CC1 (stereo not shown),6.35
4,COc1ccc(C2=CCN(C(=O)CCl)CC2)cc1,78.7
5,CCOC1CC(c2nc(-c3cccc(B(O)O)c3)no2)C1 (stereo not shown),-4.81
6,C=CC(=O)NCc1ccc(S(=O)(=O)N2CCOCC2)s1,6.6
7,C=CC(=O)N1CCN(C)CC1c1ccccc1 (stereo not shown),8.61
8,C=CC(=O)NC1CCSC1C (stereo not shown),9.61
9,C=CC(=O)N(C)CC(=O)Nc1csc(C)n1,7.47
10,CC1(C)OB(CC2CCNCC2)OC1(C)C.Cl,2.79
11,COC(=O)c1ccccc1N(C)C(=O)CCl,6.59
12,O=C(NCC1CCC(O)C1)c1ccc(B(O)O)cc1 (stereo not shown),4.59
13,C=CC(=O)Nc1cnc(C)nc1C1CC1,5.59
14,C=CC(=O)Nc1ccc(Cl)c(C#N)c1,2.87
15,O=C(Cc1cccc(F)c1)N1CCCCC1C1OCCO1 (stereo not shown),12.6
16,C=CC(=O)NCC1CC(C)(C)CO1 (stereo not shown),2.97
17,Cc1nc(C)c(CNc2ccc(C#N)nc2)s1,3.4
18,O=C(c1cccnc1S)N1CCc2ccc(O)cc2C1,19.6
19,Nn1cc(-c2ccccc2)nc1SC1CCOC1=O (stereo not shown),15.6
20,N#Cc1ncn(CC2CCCO2)n1 (stereo not shown),1.91
21,CC(C)NC(=O)C(C#N)=Cc1cccc(O)c1,19.6
22,Cc1ccc(C=CC(=O)N2CC(=O)Nc3ccccc32)o1,15.2
23,N#Cc1cccc(N2CCC2=O)c1,5.65
24,CN1C(=O)CCc2cc(B3OC(C)(C)C(C)(C)O3)ccc21,5.05
25,CN1CCC(n2cc(-c3ccc(S(=O)(=O)F)cc3)nn2)C1=O (stereo not shown),9.08
